Reference: PubChem BioAssay AID588579 (National Center for Advancing Translational Sciences (NCATS), 2011)
Several values for one entry are separate records, joined by “and”; a condition that tells them apart may be missing. Equal entries are not always repeated. The whole screen tested about 400,000 compounds, of which about 2,200 (0.55%) were called active. Inconclusive means that the source gave no clear call. Such entries were picked first, then a sample of the others. The call rests on the fitted dose curve; in most records, active means well fitted inhibition curve with a large enough effect; inconclusive means small, poorly fitted or top-dose-only effect, or another doubt; inactive means no such curve, though single readings can be large or run the other way. Potencies beside an inconclusive call are fits to weak or partial responses and may not hold up.

Molecular target: DNA polymerase kappa (Homo sapiens) (UniProt Q9UBT6)
Assay: qHTS for Inhibitors of Polymerase Kappa
Details: purified Pol kappa, fluorescent DNA synthesis assay, 10 min; series mostly up to 107 µM; activity, negative = inhibition: at the top concentration
In short: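 Enzyme at 10 nM met test compounds for 15 min at room temperature. Substrate addition (50 nM final) began the reaction, which was monitored by fluorescence at 0 and 10 min.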
On the % scale 0 is the no-effect control and ±100 the full control effect; potency means the concentration at half of the fitted maximal effect; tags describe the fitted curve by direction and shape.

Sequence of UniProt Q9UBT6 (Q9UBT6 whole entry, looked up): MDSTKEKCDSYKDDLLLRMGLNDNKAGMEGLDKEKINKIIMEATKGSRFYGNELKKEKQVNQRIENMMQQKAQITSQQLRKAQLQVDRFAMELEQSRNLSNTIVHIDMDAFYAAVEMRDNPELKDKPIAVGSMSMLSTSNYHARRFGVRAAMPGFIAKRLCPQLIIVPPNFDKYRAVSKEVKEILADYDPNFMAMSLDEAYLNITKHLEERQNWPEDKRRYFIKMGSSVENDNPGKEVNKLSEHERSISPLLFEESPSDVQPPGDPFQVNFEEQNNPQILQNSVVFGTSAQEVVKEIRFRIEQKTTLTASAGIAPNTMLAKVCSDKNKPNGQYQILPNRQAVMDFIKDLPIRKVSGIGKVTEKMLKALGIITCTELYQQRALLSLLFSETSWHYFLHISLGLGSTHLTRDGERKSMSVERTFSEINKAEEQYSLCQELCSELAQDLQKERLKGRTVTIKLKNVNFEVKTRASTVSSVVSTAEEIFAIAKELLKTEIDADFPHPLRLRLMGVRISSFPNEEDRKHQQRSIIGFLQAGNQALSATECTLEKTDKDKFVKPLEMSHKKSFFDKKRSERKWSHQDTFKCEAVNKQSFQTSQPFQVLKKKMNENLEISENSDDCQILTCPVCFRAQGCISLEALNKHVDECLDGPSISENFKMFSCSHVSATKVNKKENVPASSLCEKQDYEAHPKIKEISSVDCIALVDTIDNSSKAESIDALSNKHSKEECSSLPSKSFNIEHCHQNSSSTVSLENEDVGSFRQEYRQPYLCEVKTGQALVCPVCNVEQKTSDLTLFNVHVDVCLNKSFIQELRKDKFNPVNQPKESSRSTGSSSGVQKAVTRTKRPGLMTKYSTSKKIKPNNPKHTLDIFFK

Row | Compound | Potency | activity, negative = inhibition
1 | O=C(CN1C(=O)/C(=C/c2ccco2)SC1=S)NC1CCS(=O)(=O)C1 (stereo unspecified) | inconclusive: 56.2 µM [inhibitor, partial curve, poor fit] | 
2 | CC(C)=CCOc1ccc(/C=C/C(=O)c2ccc(OCC=C(C)C)cc2OCC(=O)O)cc1 | inconclusive: 35.5 µM [inhibitor, single point] | 
3 | COc1ccc(C)cc1-n1nnnc1SCC(=O)NC(=O)NCc1ccco1 | inconclusive: 89.1 µM [inhibitor, single point] | 
4 | CC(C)(C)c1ccc(/C=C/C(=O)Nc2ccc3c(c2)OCCO3)cc1 | inconclusive: 37.7 µM [inhibitor, partial curve, poor fit] | 
5 | CN(C)c1ncc(C2=C(Cl)C(=O)C(N3CCCC3)=C(Cl)C2=O)s1 | active: 28.2 µM | 
6 | Cc1ccc(NC(=O)C2CCN(S(=O)(=O)c3ccc4c(c3)CCCC(=O)N4)CC2)cc1N(C)C | inactive | 
7 | COc1ccccc1NS(=O)(=O)c1cn(C)c(C)n1 |  | inactive: -3.35% [at 60.1 µM]
8 | CNC(=S)N(Cc1cccs1)Cc1cc2ccc(OC)cc2[nH]c1=O |  | inactive: -16.2%
9 | O=C1/C(=C\c2ccco2)NC(=S)N1c1ccccc1 | inconclusive: 89.1 µM [inhibitor, single point] | 
10 | CCC1CN(C(=O)N2CCC(C(=O)NCc3cccc(F)c3)CC2)c2cc(C)ccc2O1 (stereo unspecified) | inconclusive: 89.1 µM [inhibitor, single point] | 
11 | C=C1C=C(C(F)F)n2ncc(C(=O)NCc3ccc(F)cc3)c2N1 |  | inactive: 4.31%
12 | Cc1cc(Nc2cccc(Cl)c2)nc2ccc(NC(=O)COc3ccc(Cl)cc3)cc12 | inconclusive: 89.1 µM [inhibitor, partial curve, poor fit] | 
13 | COc1ccc(NC(=O)CN(C)C(=O)c2cc(-c3ccco3)nc3ccccc23)cc1 | active: 44.7 µM | 
14 | O=C(Nc1ccc2c(c1)N(S(=O)(=O)c1cccs1)CCC2)c1c(F)cccc1Cl |  | inactive: -8.81%
15 | O=C(Nc1cccnc1)c1cc2c(ccc3ccccc32)o1 | inconclusive: 89.1 µM [inhibitor, partial curve, poor fit] | 
16 | CCOC(=O)c1c(NC(=O)CN2C(=O)NC3(CCCCC3C)C2=O)sc(C)c1C (stereo unspecified) | inconclusive: 79.4 µM [inhibitor, partial curve, poor fit] | 
17 | O=C(O)c1ccccc1-c1c2cc(I)c(=O)c(I)c-2oc2c(I)c(O)c(I)cc12 | active: 17.8 µM and active: 23.8 µM and active: 22.4 µM | 
18 | CCS(=O)(=O)N1Cc2ccccc2CC1C(=O)Nc1ncc(C)s1 (stereo unspecified) |  | inactive: -0.428%
19 | CC[n+]1c(/C=C/C=C2/N(C)c3ccccc3C2(C)C)sc2ccccc21 | active: 26.7 µM | 
20 | COCc1cc(=O)n2[nH]c(-c3ccsc3-n3c(C)ccc3C)cc2n1 | active: 11.2 µM | 
21 | CC1=NN(c2ccc(Br)cc2)C(=O)/C1=C/c1ccc(-c2ccccc2C(=O)O)o1 |  | inactive: -9.81%
22 | Cc1nc(SC(C)C(=O)Nc2cccc(C(F)(F)F)c2)c2c(C)c(C(=O)O)sc2n1 (stereo unspecified) | inconclusive: 89.1 µM [inhibitor, partial curve, poor fit] | 

Row | Compound | Potency | activity, negative = inhibition
23 | COC(=O)[C@@]1(C)CCC[C@@]2(C)c3ccc(O)c(C(C)C)c3CCC21 (stereo partly specified) | inconclusive: 39.8 µM [inhibitor, partial curve, poor fit] | 
24 | O=C(N/N=C/c1ccccc1Cl)c1[nH]c2ccc(Br)cc2c1-c1ccccc1 | inconclusive: 39.8 µM [inhibitor, partial curve, poor fit] | 
25 | CCOc1ccc(C2C(C(N)=O)=C(C)Nc3nc(SCc4ccccc4F)nn32)cc1 (stereo unspecified) |  | inactive: -1.3%
26 | O=C(CSc1nnc(-c2ccco2)c(-c2ccco2)n1)c1ccccc1 | active: 79.4 µM | 
27 | CSc1ccc(CCNC(=O)c2csc3c2CCCCC3)cc1 |  | inactive: -1.27%
28 | CC(=O)n1cc(N(C(=O)CCl)c2ccc(C)cc2)c2ccccc21 |  | inactive: 3.91%
29 | CN(CC(=O)NCCc1ccccc1)S(=O)(=O)c1ccc(Br)s1 | inconclusive: 39.8 µM [inhibitor, single point] | 
30 | COc1cc2oc3ccccc3c(=O)c2cc1OC | inconclusive: 89.1 µM [inhibitor, partial curve] | 
31 | Cc1nn(-c2ccccc2)c(C)c1C=O |  | inactive: 5.57%
32 | O/N=C(/C[n+]1cccc(Br)c1)c1ccc2ccccc2c1 |  | inactive: -4.77%
33 | C/C(=N/NC(=O)c1cc(-c2cccc([N+](=O)[O-])c2)n[nH]1)c1ccc(Cl)cc1 | inconclusive: 89.1 µM [inhibitor, single point] | 
34 | O=C(NNC(=O)c1cc2ccccc2cc1O)Nc1ccc(F)cc1F | inconclusive: 89.1 µM [inhibitor, single point] | 
35 | CN(C)c1ccc2nc3c(=O)[nH]c(=O)nc-3n(CC(O)C(O)C(O)CO)c2c1 (stereo unspecified) | inconclusive: 15.8 µM [inhibitor, partial curve, poor fit] | 
36 | CC(Oc1ccc(O)cc1)(P(=O)(O)O)P(=O)(O)O | active: 12.6 µM | 
37 | O=C(O)c1cccc(N2C(=O)c3ccc(Oc4ccc(Cl)cc4)cc3C2=O)c1 |  | inactive: -25.8%
38 | COc1cc(C(=O)Nc2nc3ccc4nc(C)sc4c3s2)cc(OC)c1OC | inconclusive: 79.4 µM [inhibitor, partial curve, poor fit] | 
39 | CCOC(=O)C1(Cc2cccc(Cl)c2)CCCN(C(=O)c2cc(C)n(C)n2)C1 (stereo unspecified) | inconclusive: 100 µM [inhibitor, single point] | 
40 | O=C(CI)Nc1cccc2cccnc12 | inconclusive: 89.1 µM [inhibitor, single point] | 
41 | COc1cccc2c1C(=O)c1c(O)c3c(c(O)c1C2=O)CC(O)(C(C)=O)CC3OC1CC(N(C)C)C(O)C(C)O1 (stereo unspecified) | inconclusive: 8.91 µM [inhibitor, full curve, poor fit] | 
42 | O=C(NCCc1ccc(Cl)cc1)c1cc2c(s1)-c1ccccc1OC2 | inconclusive: 89.1 µM [inhibitor, single point] | 
43 | N#Cc1ccc(C(=O)Nc2ccccc2-c2nc3ccccc3s2)c(F)c1 |  | inactive: -18.7%
44 | CC(=O)c1cccc(Nc2ncnc3c2cnn3C)c1 |  | inactive: -4.32% [at 60.1 µM]

Row | Compound | Potency | activity, negative = inhibition
45 | COc1cccc2sc(Nc3nc(-c4cc5ccccc5oc4=O)cs3)nc12 | inconclusive: 79.4 µM [inhibitor, partial curve] | 
46 | Cc1ccccc1OCc1cc(=O)n2c(-c3ccccc3)csc2n1 |  | inactive: -9.43%
47 | Clc1ccccc1CSc1nnc(-c2ccco2)c(-c2ccco2)n1 | active: 35.5 µM | 
48 | CN(C)C(CNC(=O)c1ccc(OCc2cn3ccccc3n2)cc1)c1ccco1 (stereo unspecified) | inconclusive: 89.1 µM [inhibitor, single point] | 
49 | O=[N+]([O-])c1cc2oc3c(c2c(C=NCc2ccncc2)c1O)CCCC3 | inconclusive: 89.1 µM [inhibitor, single point] | 
50 | NS(=O)(=O)c1ccc(N=Nc2ccc(=O)[nH]c2O)cc1 | inconclusive: 70.8 µM [inhibitor, single point] | 
51 | COc1cc(/C=N/NC(=O)c2ccc3c(c2)OCCO3)c(Br)c(Br)c1O | active: 89.1 µM | 
52 | O=C1NC(=O)/C(=C/c2ccc(-c3cc(C(=O)O)ccc3Cl)o2)S1 | active: 56.2 µM | 
53 | COc1cccc(CNC(=O)Cc2ccc(NC(=O)C3=C(C)OCCS3)cc2)c1 | inconclusive: 100 µM [inhibitor, single point] | 
54 | O=S(=O)(c1ccc2c(c1)OCCO2)N1CCc2ccccc21 | inconclusive: 89.1 µM [inhibitor, single point] | 
55 | CSCC[C@H](NC(=O)[C@@H]1CCCN1C(=O)CNC(=O)[C@H](CCCCN)NC(=O)[C@H](Cc1cnc[nH]1)NC(=O)[C@H](CO)NC(=O)[C@H](CC(C)C)NC(=O)[C@H](CCCNC(=N)N)NC(=O)[C@@H]1CCCN1C(=O)[C@H](CCCNC(=N)N)NC(=O)[C@H](CCC(N)=O)NC(=O)[C@H](CCCNC(=N)N)NC(=O)[C@H](CCCNC(=N)N)NC(=O)[C@H](Cc1ccccc1)NC(=O)[C@@H](N)CCCCN)C(=O)N1CCC[C@H]1C(=O)N[C@@H](Cc1ccccc1)C(=O)O |  | inactive: 14.8% [at 60.1 µM]
56 | C/C(=N\NC(=O)c1cc(O)ccc1O)c1cccc(NC(=O)c2ccc(Cl)cc2)c1 | active: 50.1 µM | 
57 | Nc1c(/C=C2/C=CC(=O)C(O)=C2)c(=O)nc2sc(CC(=O)N3CCCC3)nn12 | inconclusive: 2.51 µM [inhibitor, full curve, poor fit] | 
58 | NS(=O)(=O)c1ccc(NC(=O)c2ccc(-c3ccccc3)cc2)cc1 | inconclusive: 89.1 µM [inhibitor, partial curve, poor fit] | 
59 | CCOc1cc(/C=C2\SC(=S)N(C(C(=O)O)c3ccccc3)C2=O)ccc1O (stereo unspecified) | inconclusive: 79.4 µM [inhibitor, partial curve] | 
60 | CCOc1cc(/C=C/c2cccc[n+]2C)ccc1OCC(=O)Nc1ccc(C)cc1 | inconclusive: 79.4 µM [inhibitor, partial curve] | 
61 | CCOC(=O)c1cccc(NC(=O)c2cnc3ccccc3n2)c1 |  | inactive: -2%
62 | COc1cccc2c1C(=O)c1c(O)c3c(c(O)c1C2=O)C[C@@](O)(C(=O)CO)C[C@@H]3OC1C[C@@H](N)[C@H](O)[C@H](C)O1 (stereo partly specified) | active: 17.8 µM | 
63 | O=C(COC(=O)c1cc(Cl)cc(Cl)c1)NCc1ccco1 | inconclusive: 89.1 µM [inhibitor, single point] | 
64 | COc1cc(/C=N/NC(=O)c2ccc(=O)[nH]n2)ccc1O | inconclusive: 56.2 µM [inhibitor, partial curve, poor fit] | 
65 | CN(C)c1ccc(/C=C/c2nc3ccccc3s2)cc1 | inconclusive: 50.1 µM [inhibitor, partial curve] | 
66 | O=C(NCc1ccc2c(c1)OCO2)c1cc2c(s1)CSC2 | inconclusive: 56.2 µM [inhibitor, partial curve, poor fit] | 
